# Measured values taken from publication PMC5679657, “KSHV inhibits stress granule formation by viral ORF57 blocking PKR activation” (PLoS Pathogens, 2017).
# By UniProt entry, the sequences of proteins in these tests, tags left out. Where a name states a change or a piece, a line headed by the entry shows the natural chain unless it says otherwise. Chains listed by the source or under a name are the forms on record and can include a tag or linker.
# UniProt P19525: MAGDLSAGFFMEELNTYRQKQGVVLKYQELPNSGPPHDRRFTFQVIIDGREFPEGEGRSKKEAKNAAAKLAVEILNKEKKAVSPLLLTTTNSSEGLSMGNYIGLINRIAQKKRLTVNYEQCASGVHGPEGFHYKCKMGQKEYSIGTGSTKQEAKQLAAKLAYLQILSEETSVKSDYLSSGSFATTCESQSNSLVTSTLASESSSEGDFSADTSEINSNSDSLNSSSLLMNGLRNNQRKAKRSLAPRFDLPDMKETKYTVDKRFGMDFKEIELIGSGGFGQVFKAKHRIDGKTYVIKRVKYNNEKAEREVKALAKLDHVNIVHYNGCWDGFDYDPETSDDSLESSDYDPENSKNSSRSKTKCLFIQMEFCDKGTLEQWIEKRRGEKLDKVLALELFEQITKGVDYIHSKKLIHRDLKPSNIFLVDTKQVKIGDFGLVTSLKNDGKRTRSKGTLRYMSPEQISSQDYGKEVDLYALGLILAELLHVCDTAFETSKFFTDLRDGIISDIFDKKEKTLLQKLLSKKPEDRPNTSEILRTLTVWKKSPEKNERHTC
# PKR ΔRBM-Myc-Flag (aa 1-12/153-551) (P19525, form named): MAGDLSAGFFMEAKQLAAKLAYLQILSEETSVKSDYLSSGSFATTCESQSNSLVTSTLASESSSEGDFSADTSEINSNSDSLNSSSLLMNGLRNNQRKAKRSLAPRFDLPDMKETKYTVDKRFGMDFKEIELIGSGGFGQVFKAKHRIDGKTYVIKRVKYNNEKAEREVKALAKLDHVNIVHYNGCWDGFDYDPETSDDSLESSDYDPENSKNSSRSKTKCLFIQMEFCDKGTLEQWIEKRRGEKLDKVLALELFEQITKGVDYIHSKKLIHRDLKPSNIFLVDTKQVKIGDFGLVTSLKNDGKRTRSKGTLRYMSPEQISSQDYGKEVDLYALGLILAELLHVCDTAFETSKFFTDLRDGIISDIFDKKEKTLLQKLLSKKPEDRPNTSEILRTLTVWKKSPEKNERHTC
# UniProt Q13283: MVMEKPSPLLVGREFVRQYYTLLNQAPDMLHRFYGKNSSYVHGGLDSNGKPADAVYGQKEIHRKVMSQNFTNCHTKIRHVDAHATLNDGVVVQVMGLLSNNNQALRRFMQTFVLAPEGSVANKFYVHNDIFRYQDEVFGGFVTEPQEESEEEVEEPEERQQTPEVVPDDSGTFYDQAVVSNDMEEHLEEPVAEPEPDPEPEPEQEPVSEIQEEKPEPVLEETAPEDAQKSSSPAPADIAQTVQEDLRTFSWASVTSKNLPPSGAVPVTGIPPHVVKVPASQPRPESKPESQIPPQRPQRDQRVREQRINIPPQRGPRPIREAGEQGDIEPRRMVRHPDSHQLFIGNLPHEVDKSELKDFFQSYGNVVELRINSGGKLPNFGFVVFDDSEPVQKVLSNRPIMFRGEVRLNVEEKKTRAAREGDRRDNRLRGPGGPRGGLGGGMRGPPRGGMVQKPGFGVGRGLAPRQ
# UniProt P11940: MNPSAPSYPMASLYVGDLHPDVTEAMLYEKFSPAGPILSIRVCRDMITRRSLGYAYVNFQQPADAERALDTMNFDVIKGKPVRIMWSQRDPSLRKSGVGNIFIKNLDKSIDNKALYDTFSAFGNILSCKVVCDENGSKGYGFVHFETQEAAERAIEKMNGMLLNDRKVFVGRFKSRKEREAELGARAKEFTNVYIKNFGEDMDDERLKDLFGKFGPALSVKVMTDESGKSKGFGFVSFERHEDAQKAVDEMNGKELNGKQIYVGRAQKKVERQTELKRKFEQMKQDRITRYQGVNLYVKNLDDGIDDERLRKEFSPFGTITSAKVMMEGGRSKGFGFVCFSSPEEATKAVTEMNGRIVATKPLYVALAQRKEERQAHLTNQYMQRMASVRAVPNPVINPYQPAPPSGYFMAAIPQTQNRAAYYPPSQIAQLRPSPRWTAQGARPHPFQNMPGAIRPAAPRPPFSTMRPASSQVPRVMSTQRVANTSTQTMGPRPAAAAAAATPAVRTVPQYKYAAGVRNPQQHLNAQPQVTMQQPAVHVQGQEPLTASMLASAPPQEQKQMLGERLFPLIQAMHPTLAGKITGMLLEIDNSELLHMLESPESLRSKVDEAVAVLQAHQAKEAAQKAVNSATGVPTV
# UniProt P05198: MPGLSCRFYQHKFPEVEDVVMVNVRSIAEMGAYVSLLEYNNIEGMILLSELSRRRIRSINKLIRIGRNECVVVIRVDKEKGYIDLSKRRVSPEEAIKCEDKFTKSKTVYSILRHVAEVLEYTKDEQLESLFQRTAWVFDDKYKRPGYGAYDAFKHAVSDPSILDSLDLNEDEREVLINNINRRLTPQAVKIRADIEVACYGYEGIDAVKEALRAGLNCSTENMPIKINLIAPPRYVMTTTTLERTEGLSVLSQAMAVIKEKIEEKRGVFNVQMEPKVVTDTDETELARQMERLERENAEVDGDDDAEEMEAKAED
# UniProt Q04637: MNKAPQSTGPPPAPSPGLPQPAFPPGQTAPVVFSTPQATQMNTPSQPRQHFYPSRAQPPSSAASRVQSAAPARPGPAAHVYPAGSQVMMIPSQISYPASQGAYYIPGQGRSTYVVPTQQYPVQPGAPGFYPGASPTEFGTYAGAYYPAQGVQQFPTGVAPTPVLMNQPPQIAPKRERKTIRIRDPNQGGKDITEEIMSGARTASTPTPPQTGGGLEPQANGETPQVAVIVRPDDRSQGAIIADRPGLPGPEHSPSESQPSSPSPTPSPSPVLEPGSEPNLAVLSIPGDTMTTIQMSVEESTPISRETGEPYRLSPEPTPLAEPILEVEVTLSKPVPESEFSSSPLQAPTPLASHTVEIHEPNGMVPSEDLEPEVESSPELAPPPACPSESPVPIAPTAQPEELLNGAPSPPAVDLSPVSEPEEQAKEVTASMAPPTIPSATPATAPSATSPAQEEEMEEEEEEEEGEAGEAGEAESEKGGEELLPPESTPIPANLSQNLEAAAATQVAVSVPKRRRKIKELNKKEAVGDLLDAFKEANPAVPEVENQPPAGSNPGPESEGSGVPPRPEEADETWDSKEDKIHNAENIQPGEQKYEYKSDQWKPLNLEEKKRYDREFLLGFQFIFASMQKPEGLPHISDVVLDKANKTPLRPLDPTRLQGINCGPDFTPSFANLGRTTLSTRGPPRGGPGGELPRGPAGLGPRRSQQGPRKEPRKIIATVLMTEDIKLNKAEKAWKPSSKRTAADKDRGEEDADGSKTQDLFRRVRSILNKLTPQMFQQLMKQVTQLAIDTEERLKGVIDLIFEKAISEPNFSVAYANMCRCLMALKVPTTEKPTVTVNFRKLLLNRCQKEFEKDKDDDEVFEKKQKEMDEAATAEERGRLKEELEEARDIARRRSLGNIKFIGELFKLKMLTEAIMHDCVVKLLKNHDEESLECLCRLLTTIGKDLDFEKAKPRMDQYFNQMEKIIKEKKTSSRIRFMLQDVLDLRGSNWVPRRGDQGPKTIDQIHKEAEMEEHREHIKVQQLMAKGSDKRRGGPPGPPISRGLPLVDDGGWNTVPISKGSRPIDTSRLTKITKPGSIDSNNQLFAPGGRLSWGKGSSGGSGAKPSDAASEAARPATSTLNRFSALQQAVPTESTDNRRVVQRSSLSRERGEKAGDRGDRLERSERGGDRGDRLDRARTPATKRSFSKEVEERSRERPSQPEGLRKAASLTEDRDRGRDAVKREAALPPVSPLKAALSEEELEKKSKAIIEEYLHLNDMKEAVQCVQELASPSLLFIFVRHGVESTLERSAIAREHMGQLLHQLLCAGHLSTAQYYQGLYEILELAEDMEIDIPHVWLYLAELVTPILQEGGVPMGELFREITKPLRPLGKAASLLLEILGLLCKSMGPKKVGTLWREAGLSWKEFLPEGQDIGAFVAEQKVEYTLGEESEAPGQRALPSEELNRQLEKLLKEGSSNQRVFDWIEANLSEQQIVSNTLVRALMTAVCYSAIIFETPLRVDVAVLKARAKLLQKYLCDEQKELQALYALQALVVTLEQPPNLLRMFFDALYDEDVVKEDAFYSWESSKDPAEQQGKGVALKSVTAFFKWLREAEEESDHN
# These are yes or no findings as the source states them, for the method shown. Binding seen in cells or lysates may run through a third protein. Some results given as binding are weak or reduced against the parent protein; the word gives no strength. For some assays here: Sequences can lack the tags named with a protein.
# B1: PACT-ΔPAD-Myc-Flag (Δ3, aa 1-239) (domain or fragment, UniProt O75569 1-239)
# chain: MSQSRHRAEAPPLEREDSGTFSLGKMITAKPGKTPIQVLHEYGMKTKNIPVYECERSDVQIHVPTFTFRVTVGDITCTGEGTSKKLAKHRAAEAAINILKANASICFAVPDPLMPDPSKQPKNQLNPIGSLQELAIHHGWRLPEYTLSQEGGPAHKREYTTICRLESFMETGKGASKKQAKRNAAEKFLAKFSNISPENHISLTNVVGHSLGCTWHSLRNSPGEKINLLKRSLLSIPNT
# B2: TIA-1, endogenous (protein, UniProt P31483 1-386)
# chain: MEDEMPKTLYVGNLSRDVTEALILQLFSQIGPCKNCKMIMDTAGNDPYCFVEFHEHRHAAAALAAMNGRKIMGKEVKVNWATTPSSQKKDTSSSTVVSTQRSQDHFHVFVGDLSPEITTEDIKAAFAPFGRISDARVVKDMATGKSKGYGFVSFFNKWDAENAIQQMGGQWLGGRQIRTNWATRKPPAPKSTYESNTKQLSYDEVVNQSSPSNCTVYCGGVTSGLTEQLMRQTFSPFGQIMEIRVFPDKGYSFVRFNSHESAAHAIVSVNGTTIEGHVVKCYWGKETLDMINPVQQQNQIGYPQPYGQWGQWYGNAQQIGQYMPNGWQVPAYGMYGQAWNQQGFNQTQSSAPWMGPNYGVQPPQGQNGSMLPNQPSGYRVAGYETQ
# B3: KSHV ORF57, untagged (pcDNA-ORF57) (natural protein)
# chain: MVQAMIDMDIMKGILEDSVSSSEFDESRDDETDAPTLEDEQLSEPAEPPADERIRGTQSAQGIPPPLGRIPKKSQGRSQLRSEIQFCSPLSRPRSPSPVNRYGKKIKFGTAGQNTRPPPEKRPRRRPRDRLQYGRTTRGGQCRAAPKRATRRPQVNCQRQDDDVRQGVSDAVKKLRLPASMIIDGESPRFDDSIIPRHHGACFNVFIPAPPSHVPEVFTDRDITALIRAGGKDDELINKKISAKKIDHLHRQMLSFVTSRHNQAYWVSCRRETAAAGGLQTLGAFVEEQMTWAQTVVRHGGWFDEKDIDIILDTAIFVCNAFVTRFRLLHLSCVFDKQSELALIKQVAYLVAMGNRLVEACNLLGEVKLNFRGGLLLAFVLTIPGMQSRRSISARGQELFRTLLEYYRPGDVMGLLNVIVMEHHSLCRNSECAAATRAAMGSAKFNKGLFFYPLS
# notes: KSHV ORF57, untagged, expressed from pcDNA-ORF57; also called untagged ORF57; source: HEK293, transfected, in lysate
# B4: KSHV ORF57-Flag (wild type, pVM7) (natural protein)
# chain: MVQAMIDMDIMKGILEDSVSSSEFDESRDDETDAPTLEDEQLSEPAEPPADERIRGTQSAQGIPPPLGRIPKKSQGRSQLRSEIQFCSPLSRPRSPSPVNRYGKKIKFGTAGQNTRPPPEKRPRRRPRDRLQYGRTTRGGQCRAAPKRATRRPQVNCQRQDDDVRQGVSDAVKKLRLPASMIIDGESPRFDDSIIPRHHGACFNVFIPAPPSHVPEVFTDRDITALIRAGGKDDELINKKISAKKIDHLHRQMLSFVTSRHNQAYWVSCRRETAAAGGLQTLGAFVEEQMTWAQTVVRHGGWFDEKDIDIILDTAIFVCNAFVTRFRLLHLSCVFDKQSELALIKQVAYLVAMGNRLVEACNLLGEVKLNFRGGLLLAFVLTIPGMQSRRSISARGQELFRTLLEYYRPGDVMGLLNVIVMEHHSLCRNSECAAATRAAMGSAKFNKGLFFYPLS
# notes: KSHV ORF57 (mRNA transcript accumulation protein, MTA), wild type, expressed from pVM7; also called ORF57 wt; ORF57-wt-Flag; source: HEK293 or HeLa, transfected, in lysate
# B5: PKR-activating protein (PACT), endogenous (protein, UniProt O75569 1-313)
# chain: MSQSRHRAEAPPLEREDSGTFSLGKMITAKPGKTPIQVLHEYGMKTKNIPVYECERSDVQIHVPTFTFRVTVGDITCTGEGTSKKLAKHRAAEAAINILKANASICFAVPDPLMPDPSKQPKNQLNPIGSLQELAIHHGWRLPEYTLSQEGGPAHKREYTTICRLESFMETGKGASKKQAKRNAAEKFLAKFSNISPENHISLTNVVGHSLGCTWHSLRNSPGEKINLLKRSLLSIPNTDYIQLLSEIAKEQGFNITYLDIDELSANGQYQCLAELSTSPITVCHGSGISCGNAQSDAAHNALQYLKIIAERK
# B6: full-length PACT-Myc-Flag (pPACT-FL) (protein, UniProt O75569 1-313)
# chain: MSQSRHRAEAPPLEREDSGTFSLGKMITAKPGKTPIQVLHEYGMKTKNIPVYECERSDVQIHVPTFTFRVTVGDITCTGEGTSKKLAKHRAAEAAINILKANASICFAVPDPLMPDPSKQPKNQLNPIGSLQELAIHHGWRLPEYTLSQEGGPAHKREYTTICRLESFMETGKGASKKQAKRNAAEKFLAKFSNISPENHISLTNVVGHSLGCTWHSLRNSPGEKINLLKRSLLSIPNTDYIQLLSEIAKEQGFNITYLDIDELSANGQYQCLAELSTSPITVCHGSGISCGNAQSDAAHNALQYLKIIAERK
# Assays:
# [1] = molecular target: T1, KSHV ORF57 expressed from the virus in BCBL-1 cells with lytic infection (Kaposi's sarcoma-associated herpesvirus (KSHV), in BCBL-1 cells) (UniProt Q2HR75); test: co-IP; extracts of BCBL-1 cells induced with valproic acid for 24 h, RNase A/T1-treated; IP with polyclonal rabbit anti-ORF57, non-specific rabbit IgG as control; blots for endogenous PKR and PACT
# T1 sequence: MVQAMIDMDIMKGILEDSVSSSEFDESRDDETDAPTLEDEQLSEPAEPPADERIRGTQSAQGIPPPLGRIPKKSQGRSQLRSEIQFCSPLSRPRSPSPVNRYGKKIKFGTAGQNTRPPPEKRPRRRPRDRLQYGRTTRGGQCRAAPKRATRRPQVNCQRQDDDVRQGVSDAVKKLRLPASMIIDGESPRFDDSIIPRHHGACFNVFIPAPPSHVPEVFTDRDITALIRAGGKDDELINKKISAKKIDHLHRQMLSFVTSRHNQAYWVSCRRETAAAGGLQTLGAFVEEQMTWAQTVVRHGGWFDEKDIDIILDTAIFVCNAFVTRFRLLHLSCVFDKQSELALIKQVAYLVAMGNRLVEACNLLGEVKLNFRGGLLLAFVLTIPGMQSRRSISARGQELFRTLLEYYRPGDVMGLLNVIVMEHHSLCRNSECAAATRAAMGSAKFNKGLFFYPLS
# [2] = molecular target: T2, KSHV ORF57-Flag (wild type, pVM7) (Kaposi's sarcoma-associated herpesvirus (KSHV)) (UniProt Q2HR75); test: co-IP; lysates of HEK293 or HeLa cells transfected with Flag-tagged ORF57 wt or mt (arsenite-treated cells by the legend's title for A-C), digested with RNase A/T1; IP with mouse anti-Flag (Fig 5E left panel: rabbit anti-ORF57); blots for endogenous proteins; IP buffer 50 mM HEPES pH 7.5, 200 mM NaCl, overnight 4°C
# T2 sequence: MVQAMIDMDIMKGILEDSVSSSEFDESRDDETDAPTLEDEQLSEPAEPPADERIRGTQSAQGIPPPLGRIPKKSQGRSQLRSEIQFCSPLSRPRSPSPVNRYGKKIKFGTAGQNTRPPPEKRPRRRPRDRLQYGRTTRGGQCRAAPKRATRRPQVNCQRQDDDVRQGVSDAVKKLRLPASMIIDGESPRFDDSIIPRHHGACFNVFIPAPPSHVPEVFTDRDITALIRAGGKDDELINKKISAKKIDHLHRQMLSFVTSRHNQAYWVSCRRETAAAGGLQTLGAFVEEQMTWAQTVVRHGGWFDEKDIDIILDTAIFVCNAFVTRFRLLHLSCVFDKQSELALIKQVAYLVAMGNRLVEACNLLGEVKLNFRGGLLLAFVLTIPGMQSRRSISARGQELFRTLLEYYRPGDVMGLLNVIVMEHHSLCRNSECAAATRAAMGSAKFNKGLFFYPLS
# [3] = molecular target: T3, KSHV ORF57, untagged (pcDNA-ORF57) (Kaposi's sarcoma-associated herpesvirus (KSHV)) (UniProt Q2HR75); test: co-IP; HEK293 extract with Myc-Flag-PACT or a deletion mutant mixed with lysate with untagged ORF57, RNase A/T1-digested; IP with polyclonal rabbit anti-ORF57 beads (Fig 6C)
# T3 sequence: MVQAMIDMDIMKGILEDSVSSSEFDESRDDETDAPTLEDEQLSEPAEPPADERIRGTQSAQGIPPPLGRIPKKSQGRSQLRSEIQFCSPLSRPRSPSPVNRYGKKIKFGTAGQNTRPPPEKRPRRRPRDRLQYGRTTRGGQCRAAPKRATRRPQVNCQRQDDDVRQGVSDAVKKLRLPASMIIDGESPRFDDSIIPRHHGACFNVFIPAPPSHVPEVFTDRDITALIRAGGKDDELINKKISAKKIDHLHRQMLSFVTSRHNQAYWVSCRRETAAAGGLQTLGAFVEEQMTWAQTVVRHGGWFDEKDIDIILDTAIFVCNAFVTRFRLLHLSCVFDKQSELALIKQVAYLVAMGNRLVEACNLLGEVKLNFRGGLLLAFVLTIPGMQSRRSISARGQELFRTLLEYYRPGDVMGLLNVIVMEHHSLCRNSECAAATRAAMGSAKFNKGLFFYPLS
# [4] = molecular target: full-length PKR-Myc-Flag (pPKR-FL) (UniProt P19525); test: co-IP; HEK293 extract with Myc-Flag-tagged PKR FL, ΔPK or ΔRBM mixed with extract with untagged ORF57, RNase A/T1-digested; IP with anti-Flag for PKR; blot anti-ORF57
# [5] = molecular target: PKR ΔRBM-Myc-Flag (aa 1-12/153-551) (UniProt P19525); test: as above
# [6] = molecular target: T4, PACT-ΔPAD-Myc-Flag (Δ3, aa 1-239) (UniProt O75569); test: co-IP; HEK293 extract with Myc-Flag-PACT or a deletion mutant mixed with lysate with untagged ORF57, RNase A/T1-digested; IP with anti-Flag M2 beads (Fig 6B, 6D)
# T4 sequence: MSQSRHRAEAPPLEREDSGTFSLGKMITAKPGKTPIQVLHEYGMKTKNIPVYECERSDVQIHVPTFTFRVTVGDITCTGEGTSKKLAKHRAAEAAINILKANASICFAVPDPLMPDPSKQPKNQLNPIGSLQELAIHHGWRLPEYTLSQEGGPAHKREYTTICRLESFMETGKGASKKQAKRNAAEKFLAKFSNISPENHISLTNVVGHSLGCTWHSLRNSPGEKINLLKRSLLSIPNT
# [7] = molecular target: PACT-Δ1-Myc-Flag (deletion of RBM1) (UniProt O75569); test: as above
# [8] = molecular target: PACT-Δ1,2-Myc-Flag (deletion of RBM1 and RBM2) (UniProt O75569); test: as above
# [9] = molecular target: PACT-Δ2-Myc-Flag (deletion of RBM2) (UniProt O75569); test: as above
# [10] = molecular target: T5, full-length PACT-Myc-Flag (pPACT-FL) (UniProt O75569); test: as above
# T5 sequence: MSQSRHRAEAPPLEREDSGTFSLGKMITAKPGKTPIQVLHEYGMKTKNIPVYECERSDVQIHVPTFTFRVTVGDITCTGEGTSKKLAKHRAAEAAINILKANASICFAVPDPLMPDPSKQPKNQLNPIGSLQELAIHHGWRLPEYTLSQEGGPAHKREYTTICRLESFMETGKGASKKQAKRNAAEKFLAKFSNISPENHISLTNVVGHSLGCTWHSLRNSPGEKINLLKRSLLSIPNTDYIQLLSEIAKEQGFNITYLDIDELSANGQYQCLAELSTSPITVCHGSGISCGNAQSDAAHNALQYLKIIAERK
# [11] = molecular target: protein kinase R (PKR), endogenous (human (endogenous in HEK293, HeLa, BCBL-1)) (UniProt P19525); test: co-IP; RNase A/T1-treated extracts of HEK293 cells transfected with empty vector, ORF57-wt-Flag or ORF57-mt-Flag (arsenite-treated); IP with anti-PKR; blots for ORF57 (anti-Flag) and PACT
# [12] = molecular target: T6, PKR-activating protein (PACT), endogenous (human (endogenous in HEK293, HeLa, BCBL-1)) (UniProt O75569); test: co-IP; RNase A/T1-treated extracts of HEK293 cells transfected with empty vector, ORF57-wt-Flag or ORF57-mt-Flag (arsenite-treated); IP with anti-PACT; blots for ORF57 (anti-Flag) and PKR
# T6 sequence: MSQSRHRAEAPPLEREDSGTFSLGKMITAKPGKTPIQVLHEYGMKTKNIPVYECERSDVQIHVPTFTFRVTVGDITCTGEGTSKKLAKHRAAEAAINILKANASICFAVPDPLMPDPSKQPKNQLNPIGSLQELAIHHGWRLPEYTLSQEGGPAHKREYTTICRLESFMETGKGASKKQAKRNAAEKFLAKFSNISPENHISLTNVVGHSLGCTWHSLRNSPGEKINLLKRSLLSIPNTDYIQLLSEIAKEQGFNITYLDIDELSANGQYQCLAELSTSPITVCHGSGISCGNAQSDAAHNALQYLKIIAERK
# [13] = molecular target: full-length PKR-Myc-Flag (pPKR-FL) (UniProt P19525); test: co-IP; extract of HEK293 cells with PKR-Myc-Flag, untreated or treated with arsenite for 30 min, mixed with HEK293 extract with ORF57-Flag, RNase A/T1-digested; pulled down with anti-Myc beads; blots anti-Flag, anti-pPKR (Thr 451), anti-ORF57
molecule,measurement,setting,value
"protein kinase R (PKR), endogenous (from UniProt P19525 1-551) (enzyme)",binding,[1],binds
same,binding,[2],binds
"G3BP1, endogenous (from UniProt Q13283 1-466)",binding,[2],no binding
PACT-Δ1-Myc-Flag (deletion of RBM1) (from UniProt O75569 1-313),binding,[3],binds
"PABPC1, endogenous (from UniProt P11940 1-636)",binding,[2],binds
"eIF2α, endogenous (from UniProt P05198 1-315)",binding,[2],no binding
"eIF4G1, endogenous (from UniProt Q04637 1-1599)",binding,[2],no binding
PACT-Δ2-Myc-Flag (deletion of RBM2) (from UniProt O75569 1-313),binding,[3],binds
B1,binding,[3],binds
B2,binding,[2],no binding
B3,binding,[4],binds
same,binding,[5],no binding
same,binding,[6],binds
same,binding,[7],binds
same,binding,[8],no binding
same,binding,[9],binds
same,binding,[10],binds
B4,binding,[11],binds
same,binding,[12],binds
same,binding,[13],binds
B5,binding,[1],binds
same,binding,[2],binds
B6,binding,[3],binds
